According to PubChem BioAssay AID504339 (National Center for Advancing Translational Sciences (NCATS), 2011):
Values joined by “and” are separate entries in the source; they are usually repeats but may differ in a detail not shown here. Identical values can stand only once. In all, about 390,000 compounds went through this assay and about 17,000 (4.4%) were called active. Inconclusive means that the source gave no clear call. Such entries were picked first, then a sample of the others. Calls come from the whole dose curve; as a rule, active = well fitted inhibition curve with a large enough effect; inconclusive = small, poorly fitted or top-dose-only effect; inactive = no such curve, though single readings can be large or run the other way. A potency beside an inconclusive call is a rough fit, not a confirmed value.

Each molecule was assayed against Lysine-specific demethylase 4A (Homo sapiens) (UniProt O75164) (assay: qHTS Assay for Inhibitors of JMJD2A-Tudor Domain). Conditions: AlphaScreen JMJD2A-Tudor / H3K4me3 peptide binding; activity change, negative = inhibition: at 114 µM (top of the series).
UniProt O75164, sequence (O75164 whole entry, looked up, the tested form may be a part): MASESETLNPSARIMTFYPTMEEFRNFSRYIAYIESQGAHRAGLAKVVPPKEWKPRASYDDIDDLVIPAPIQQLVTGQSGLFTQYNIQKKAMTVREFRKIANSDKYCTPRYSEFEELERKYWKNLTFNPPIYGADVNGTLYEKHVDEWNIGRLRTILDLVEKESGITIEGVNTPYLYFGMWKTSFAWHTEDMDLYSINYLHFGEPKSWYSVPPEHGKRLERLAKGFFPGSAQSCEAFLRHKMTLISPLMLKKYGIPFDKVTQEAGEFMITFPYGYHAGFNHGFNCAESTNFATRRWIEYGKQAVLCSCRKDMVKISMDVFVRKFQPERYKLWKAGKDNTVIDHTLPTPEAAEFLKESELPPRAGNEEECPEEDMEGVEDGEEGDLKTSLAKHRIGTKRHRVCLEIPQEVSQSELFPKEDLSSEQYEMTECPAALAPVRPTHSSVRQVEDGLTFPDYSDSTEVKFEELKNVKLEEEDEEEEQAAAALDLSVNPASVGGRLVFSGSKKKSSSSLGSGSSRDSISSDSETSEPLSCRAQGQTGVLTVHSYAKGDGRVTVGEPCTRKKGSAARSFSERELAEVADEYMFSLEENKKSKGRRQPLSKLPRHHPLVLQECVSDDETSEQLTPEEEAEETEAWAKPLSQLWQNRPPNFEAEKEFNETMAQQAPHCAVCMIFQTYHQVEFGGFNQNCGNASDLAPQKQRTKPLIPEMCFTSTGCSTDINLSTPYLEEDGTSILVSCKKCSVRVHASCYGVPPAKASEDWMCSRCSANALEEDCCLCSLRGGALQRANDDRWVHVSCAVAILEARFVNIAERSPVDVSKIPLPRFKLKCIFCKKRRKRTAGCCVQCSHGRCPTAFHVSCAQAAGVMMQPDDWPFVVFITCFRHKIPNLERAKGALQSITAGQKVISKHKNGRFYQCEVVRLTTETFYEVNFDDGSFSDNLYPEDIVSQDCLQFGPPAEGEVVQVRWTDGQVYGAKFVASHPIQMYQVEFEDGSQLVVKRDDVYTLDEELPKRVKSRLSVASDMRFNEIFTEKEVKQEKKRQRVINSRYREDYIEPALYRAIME
% is set by controls: 0 for no effect and ±100 for the full control effect; potency is the fitted concentration of half-maximal effect; tags give direction and shape of the fitted curve.
Note: nearly all actives have a fitted effect of over 50% in size.

Structure (SMILES)	Potency	activity change, negative = inhibition
Cc1cc(C2(c3ccc(O)c(C)c3)C(=O)Nc3ccccc32)ccc1O	inconclusive: 79.4 µM [inhibitor, partial curve]	–
Nc1ccc(Oc2ccc3nc(-c4ccccc4)c(-c4ccc([N+](=O)[O-])cc4)nc3c2)cc1	inconclusive: 39.8 µM [inhibitor, partial curve]	–
COc1cccc(-n2sc3c(c2=S)-c2cc(OC)ccc2NC3(C)C)c1	active: 11.2 µM	–
O=C(COc1ccccc1)NC1CCSc2ccccc21 (stereo unspecified)	inactive	–
Cc1ccc(OCC(=O)Nc2nonc2-c2ccc(C)c(C)c2)cc1C	inconclusive: 70.8 µM [inhibitor, single point]	–
O=C(Cc1ccccc1)NNC(=S)NC(=O)c1cccnc1	active: 25.1 µM	–
Cc1ccc(-n2c(Cc3cccn3C)nnc2SCC(=O)N2CCN(c3ccccc3)CC2)cc1	inconclusive: 44.7 µM [inhibitor, partial curve]	–
S=c1[nH]nc(Nc2ccccc2)s1	inconclusive: 3.16 µM [inhibitor, single point]	–
Cc1[nH]c2ccccc2c1C(=O)C(=O)N1CCN(c2cccc(Cl)c2)CC1	inconclusive: 39.8 µM [inhibitor, partial curve]	–
CCCCC1(Br)C(=O)N(c2ccccc2)N(c2ccccc2)C1=O	active: 17.8 µM	–
Cc1ccc(C(=O)NNC(=S)Nc2cccc3ccccc23)s1	inactive	–
CCn1c(SC)nnc1-c1nn(-c2ccccc2)ccc1=O	active: 3.98 µM	–
CN(CC(=O)Nc1cccc(F)c1)C(=O)c1cc(-c2ccco2)nc2ccccc12	active: 10 µM	–
O=C1CC(c2ccccc2)n2nc(NC(=O)c3ccccn3)nc2N1 (stereo unspecified)	active: 7.94 µM	–
Nc1nc(NCc2c(F)cccc2Cl)nn1-c1ccccc1	inconclusive: 89.1 µM [inhibitor, single point]	–
Cc1ccc(NS(=O)(=O)c2ccc(-c3cnc(C4CC4)o3)cc2)cc1N(C)C	inconclusive: 63.1 µM [inhibitor, partial curve]	–
COc1ccc(NC(=S)N2CCN(c3ccc([N+](=O)[O-])cc3)CC2)cc1OC	inconclusive: 20 µM [inhibitor, partial curve]	–
CCOc1ccccc1CNC(=O)CCc1c(C)nn(-c2ccc(N3CCCCC3)nn2)c1C	inactive	–
O=C(CNC(=O)Cc1ccccc1)NCC(=O)OCc1ccc(C(=O)c2ccccc2)cc1	inconclusive: 79.4 µM [inhibitor, partial curve]	–
C=CCOc1ccc(C2/C(=C(/O)c3ccc4c(c3)CC(C)O4)C(=O)C(=O)N2CCCN2CCOCC2)cc1 (stereo unspecified)	inconclusive: 39.8 µM [inhibitor, single point]	–
Nc1nnc(Cc2cccc(Br)c2)s1	inactive	–
CN1CCC(=C2c3ccccc3CCc3sccc32)CC1	inconclusive: 56.2 µM [inhibitor, partial curve]	–
CCN(CC)CCN1C(=O)C(=O)/C(=C(/O)c2ccc3c(c2)CC(C)O3)C1c1ccc(OC)cc1 (stereo unspecified)	inconclusive: 39.8 µM [inhibitor, partial curve]	–
Cc1ccc2oc(C(=O)N(Cc3ccc(N(C)C)cc3)CC3CCCO3)c(C)c2c1 (stereo unspecified)	active: 17.8 µM and active: 50.1 µM	–

Structure (SMILES)	Potency	activity change, negative = inhibition
COC(=O)C1=C(C)N(Cc2ccccc2)C(=NCCc2c[nH]c3ccccc23)N[C@H]1c1cccc(F)c1	inconclusive: 56.2 µM [inhibitor, partial curve]	–
CCN(CCCNC(=O)CC(C(=O)N1CCc2ccccc21)n1ccnc1)c1cccc(C)c1 (stereo unspecified)	active: 50.1 µM	–
COc1ccc(-c2cn[nH]c2-c2ccc(OCc3ccccc3)cc2O)cc1	inconclusive: 22.4 µM [inhibitor, partial curve]	–
CCC(C)NC(=S)N1CCN(Cc2ccccc2)CC1 (stereo unspecified)	inconclusive: 63.1 µM [inhibitor, partial curve, poor fit]	–
CC(C)(C)C1CCC(=NNc2ccc(S(N)(=O)=O)cc2[N+](=O)[O-])CC1 (stereo unspecified)	inconclusive: 22.4 µM [inhibitor, single point]	–
Cc1[nH]n(-c2ccccc2)c(=O)c1C(c1ccccc1[N+](=O)[O-])C(C#N)C#N (stereo unspecified)	inconclusive: 56.2 µM [inhibitor, partial curve]	–
COc1ccc(/C=C/c2ccc3c(Br)ccc(O)c3n2)cc1	inactive	–
CCC(C)NC(=O)[C@H]1N2C(=O)c3c(ccc(OC)c3OC)C2SC1(C)C (stereo partly specified)	inconclusive: 31.6 µM [inhibitor, partial curve]	–
O=[N+]([O-])c1nn(-c2ccc3c(c2)OCCO3)n(O)c1=NCCC1=CCCCC1	inconclusive: 3.98 µM [inhibitor, full curve, poor fit]	–
COc1ccc(OC)c(CN2CCN(S(=O)(=O)c3ccccc3)CC2)c1	active: 20 µM	–
O=C(CSc1nnc(CNC(=O)c2ccccc2F)o1)c1ccccc1	inconclusive: 89.1 µM [inhibitor, single point]	–
CS(=O)(=O)Nc1ccc(-c2n[nH]c(=S)n2-c2ccccc2)cc1	active: 5.62 µM	–
COc1ccc(CNCCNC(=O)c2ccco2)c(OC)c1OC	inconclusive: 39.8 µM [inhibitor, partial curve, poor fit]	–
Cc1ccc(-n2nc(C)c3c2OC(N)=C(C#N)C3c2ccco2)cc1 (stereo unspecified)	active: 56.2 µM	–
CN=c1scc(C)n1/N=C/c1ccc(O)cc1O	inconclusive: 56.2 µM [inhibitor, partial curve, poor fit]	–
CCC(CO)Oc1cc(NCc2ccccc2OC)c2ncn(C(C)C)c2c1 (stereo unspecified)	inconclusive: 50.1 µM [inhibitor, partial curve]	–
O=c1ccn(Cc2ccccc2)cc1	inactive	–
Cn1ccnc1SCC(=O)Nc1ccc2ccccc2c1	inconclusive: 56.2 µM [inhibitor, partial curve]	–
COC(=O)CCC(=O)OC1(C)C(=O)C=C2C=C(C3CC3)N(C3CCCCC3)C=C2C1=O (stereo unspecified)	inconclusive: 63.1 µM [inhibitor, partial curve, poor fit]	–
CCC1(C)Cc2c(C#N)c(N)sc(=S)c2CO1 (stereo unspecified)	inconclusive: 56.2 µM [inhibitor, partial curve]	–
CCC(C)NC(=O)C1c2ccccc2C(=O)N(c2ccc(OC)cc2)C1c1ccc(OC)cc1 (stereo unspecified)	active: 20 µM	–
NS(=O)(=O)c1ccc(NC(=S)NCC2CCCO2)cc1 (stereo unspecified)	inactive	–
COC(=O)c1ccc(-c2ccco2)n1Cc1ccccc1Cl	inconclusive: 56.2 µM [inhibitor, partial curve]	–
Cc1ccccc1-c1nc2c3c(-c4ccccc4)c(-c4ccccc4)oc3ncn2n1	inactive	–

Structure (SMILES)	Potency	activity change, negative = inhibition
CCOC(=O)c1c(/N=C/c2cc(OC)cc([N+](=O)[O-])c2O)sc(C)c1C	inconclusive: 56.2 µM [inhibitor, partial curve]	–
Cc1cc(C(=O)COC(=O)c2ccc(F)cc2F)c(C)n1C1CC1	inactive	–
CN(C)C1=NCCN1CCCCc1ccccc1	inactive	–
Cc1ccc(-c2nc(C#N)c(NCc3cccc4c3OCO4)o2)cc1	inconclusive: 39.8 µM [inhibitor, partial curve]	–
O=[N+]([O-])c1cccc(/C=N\N2CCN(Cc3ccccc3Cl)CC2)c1	active: 44.7 µM	–
C(=C/c1ccnc2nc(SC/C=C/c3ccccc3)nn12)/c1ccccc1	inconclusive: 3.98 µM [inhibitor, full curve, poor fit]	–
COc1ccc(OC(C)C(=O)Nc2ccc(F)cc2F)cc1 (stereo unspecified)	–	inactive: -1.5% [at 11.4 µM]
O=C(Nc1ccc(F)cc1F)c1cccnc1	inconclusive: 79.4 µM [inhibitor, partial curve]	–
CC1Cc2cccc3c(O)c(C(=O)c4nn[nH]n4)c(=O)n1c23 (stereo unspecified)	inconclusive: 89.1 µM [inhibitor, single point]	–
CC(C)=NN1C(c2nonc2N)=NOC1(C)C	inconclusive: 89.1 µM [inhibitor, single point]	–
CCN(CC)c1ccc(NC(=O)c2ccccc2F)cc1	inconclusive: 50.1 µM [inhibitor, partial curve]	–
O=C1NC(c2cccnc2)C(C(=O)c2cccs2)C(O)(C(F)(F)F)N1 (stereo unspecified)	inactive	–
Cc1cc2[nH]c3c(=O)n(Cc4ccccc4F)ncc3c2s1	inconclusive: 39.8 µM [inhibitor, single point]	–
Cc1ccc(CN(N=Nc2nonc2N)c2nonc2N)c(C)c1	inconclusive: 79.4 µM [inhibitor, partial curve]	–
CCOC(=O)/C=C/C(=O)OCC(=O)Nc1ccc(C)cc1	inactive	–
COc1cc2c(cc1OC)-c1cc(Nc3ccccc3C)nc(=O)n1CC2	inconclusive: 20 µM [inhibitor, full curve, poor fit]	–
O=C(/C=C/c1ccc([N+](=O)[O-])cc1)Nc1cccnc1	inconclusive: 89.1 µM [inhibitor, single point]	–
COc1cccc(-n2ccn(CC(=O)Nc3ccccc3F)c(=O)c2=O)c1	inactive	–
O=c1[nH]cnc2nc(-c3ccccc3)c(-c3ccccc3)nc12	inactive	–
O=C(CCNC(=O)c1ccco1)Nc1ccc(Cl)cc1	inconclusive: 63.1 µM [inhibitor, partial curve, poor fit]	–
Cc1ccc(Nc2nc(N)nc(CSC(=S)N3CCN(c4ccccc4)CC3)n2)cc1	inconclusive: 50.1 µM [inhibitor, partial curve]	–
Cc1ccccc1C(=O)Nc1sc(C)c(C)c1C(=O)c1ccccc1	inconclusive: 14.1 µM [inhibitor, full curve]	–
COc1cccc(/C=N/Nc2ncc(C)c(=O)[nH]2)c1OC	inactive	–
